Measured values published in patent US6800434B2, “Peptides as NS3-serine protease inhibitors of hepatitis C virus” (priority 2000, dated 2004).
Starred links: 1 amine or outer side, 2 acyl side, 3 side chain; linkers in the order of their positions; H or OH if unused. Non-standard residues stand in square brackets, D forms with d. Residues, ends and D or L forms follow the SMILES beside them. *: point of attachment. X6 = COc1ccc(S(=O)(=O)N[C@@H]2C[C@@H](C(=O)[*:2])N([*:1])C2)cc1; X9 = O=C(N[C@@H]1C[C@@H](C(=O)[*:2])N([*:1])C1)c1ccc2c(c1)OCO2; X30 = COc1ccc(NC(=O)N[C@@H]2C[C@@H](C(=O)[*:2])N([*:1])C2)cc1; Pro(trans-4-NH2) = O=C([C@@H]1C[C@@H](N[*:3])CN1[*:1])[*:2]; X28 = O=C([C@@H]1C[C@@H](NS(=O)(=O)c2ccccc2)CN1[*:1])[*:2]; X20 = O=C(Nc1ccccc1)N[C@@H]1C[C@@H](C(=O)[*:2])N([*:1])C1; X33 = O=C(N[C@@H]1C[C@@H](C(=O)[*:2])N([*:1])C1)c1ccccc1; Pro(trans-4-Ph) = O=C(O)[C@@H]1C[C@@H](c2ccccc2)CN1; X35 = C=CC[C@@H]1C[C@@H](C(=O)[*:2])N([*:1])C1; Benzoyl(4-OPh) = O=C(c1ccc(Oc2ccccc2)cc1)*; X1 = CCC[C@H](N[*:1])C(=O)C(=O)[*:2]; Hyp = O=C(O)[C@@H]1C[C@@H](O)CN1; Carboxymethyl = O=C(O)C*; Thz = O=C(O)[C@@H]1CSCN1; Sar = CNCC(=O)O

Target: Recombinant heterodimeric HCV NS3/NS4A protease (strain 1a) (Hepatitis C virus genotype 1a, UniProt P27958)
Assay: biochemical
Details: Ki* Range

Row | SMILES | Ki [µM]
1 | CCC[C@H](NC(=O)[C@@H]1C[C@@H](NC(=O)c2ccc(Oc3ccccc3)cc2)CN1C(=O)[C@@H](NC(=O)[C@@H](NC(=O)[C@H](CCC(=O)O)NC(=O)[C@H](CCC(=O)O)NC(C)=O)C(C)C)C(C)C)C(=O)C(=O)NCC(=O)O [Ac-EEVV-P(4t-NHBzl(4-OPh))-nV-(CO)-G-OH] (Ac-EEVV[Pro(trans-4-NH2)](Benzoyl(4-OPh))[X1]G-OH) | 0.001 to 0.1
2 | CCC[C@H](NC(=O)[C@@H]1C[C@@H](NC(=O)c2ccc3c(c2)OCO3)CN1C(=O)[C@@H](NC(=O)[C@@H](NC(=O)[C@H](CCC(=O)O)NC(=O)[C@H](CCC(=O)O)NC(C)=O)C(C)C)C(C)C)C(=O)C(=O)NCC(=O)O [Ac-EEVV-P(4t-NHBzl)3,4-OMeO))-nV-(CO)-G-OH] (Ac-EEVV[X9][X1]G-OH) | 0.001 to 0.1
3 | CCC[C@H](NC(=O)[C@@H]1C[C@@H](NC(=O)c2ccccc2)CN1C(=O)[C@@H](NC(=O)[C@@H](NC(=O)[C@H](CCC(=O)O)NC(=O)[C@H](CCC(=O)O)NC(C)=O)C(C)C)C(C)C)C(=O)C(=O)NCC(=O)O [Ac-EEVV-P(4t-NHBzl)-nV-(CO)-G-OH, Ac-Glu-Glu-Val-Val-Pro(4t-NHBzl)-nVal-(CO)-Gly-OH] (Ac-EEVV[X33][X1]G-OH) | 0.001 to 0.1
4 | CCC[C@H](NC(=O)[C@@H]1C[C@@H](NS(=O)(=O)c2ccc(OC)cc2)CN1C(=O)[C@@H](NC(=O)[C@@H](NC(=O)[C@H](CCC(=O)O)NC(=O)[C@H](CCC(=O)O)NC(C)=O)C(C)C)C(C)C)C(=O)C(=O)NCC(=O)O [Ac-EEVV-P(4t-NHSO2Ph(4-OMe))-nV-(CO)-G-OH] (Ac-EEVV[X6][X1]G-OH) | 0.001 to 0.1
5 | CCC[C@H](NC(=O)[C@@H]1C[C@@H](NS(=O)(=O)c2ccccc2)CN1C(=O)[C@@H](NC(=O)[C@@H](NC(=O)[C@H](CCC(=O)O)NC(=O)[C@H](CCC(=O)O)NC(C)=O)C(C)C)C(C)C)C(=O)C(=O)NCC(=O)O [Ac-EEVV-P(4t-NHSO2Ph)-nV-(CO)-G-OH] (Ac-EEVV[X28][X1]G-OH) | 0.001 to 0.1
6 | CCC[C@H](NC(=O)[C@@H]1C[C@@H](OCC(=O)O)CN1C(=O)[C@@H](NC(=O)[C@@H](NC(=O)[C@H](CCC(=O)O)NC(=O)[C@H](CCC(=O)O)NC(C)=O)C(C)C)C(C)C)C(=O)C(=O)NCC(=O)O [Ac-EEVV-P(4t-O-2AcOH)-nV-(CO)-G-OH] (Ac-EEVV[Hyp](Carboxymethyl)[X1]G-OH) | 0.001 to 0.1
7 | CCC[C@H](NC(=O)[C@@H]1C[C@@H](c2ccccc2)CN1C(=O)[C@@H](NC(=O)[C@@H](NC(=O)[C@H](CCC(=O)O)NC(=O)[C@H](CCC(=O)O)NC(C)=O)C(C)C)C(C)C)C(=O)C(=O)NCC(=O)O [Ac-EEVV-P(4t-Ph)-nV-(CO)-G-OH] (Ac-EEVV[Pro(trans-4-Ph)][X1]G-OH) | 0.001 to 0.1
8 | CCC[C@H](NC(=O)[C@@H]1C[C@@H](NC(=O)Nc2ccc(OC)cc2)CN1C(=O)[C@@H](NC(=O)[C@@H](NC(=O)[C@H](CCC(=O)O)NC(=O)[C@H](CCC(=O)O)NC(C)=O)C(C)C)C(C)C)C(=O)C(=O)NCC(=O)O [Ac-EEVV-P(4t-UreaPh(4-OMe))-nV-(CO)-G-OH] (Ac-EEVV[X30][X1]G-OH) | 0.001 to 0.1
9 | CCC[C@H](NC(=O)[C@@H]1C[C@@H](NC(=O)Nc2ccccc2)CN1C(=O)[C@@H](NC(=O)[C@@H](NC(=O)[C@H](CCC(=O)O)NC(=O)[C@H](CCC(=O)O)NC(C)=O)C(C)C)C(C)C)C(=O)C(=O)NCC(=O)O [Ac-EEVV-P(4t-UreaPh)-nV-(CO)-G-OH] (Ac-EEVV[X20][X1]G-OH) | 0.001 to 0.1
10 | C=CC[C@@H]1C[C@@H](C(=O)N[C@@H](CCC)C(=O)C(=O)NCC(=O)O)N(C(=O)[C@@H](NC(=O)[C@@H](NC(=O)[C@H](CCC(=O)O)NC(=O)[C@H](CCC(=O)O)NC(C)=O)C(C)C)C(C)C)C1 [Ac-EEVV-P(4t-allyl)-nV-(CO)-G-OH] (Ac-EEVV[X35][X1]G-OH) | 0.001 to 0.1
11 | CCC[C@H](NC(=O)CN(C)C(=O)[C@@H](NC(=O)[C@@H](NC(=O)[C@H](CCC(=O)O)NC(=O)[C@H](CCC(=O)O)NC(C)=O)C(C)C)C(C)C)C(=O)C(=O)NCC(=O)O [Ac-EEVV-Sar-nV-(CO)-G-OH] (Ac-EEVV[Sar][X1]G-OH) | 0.101 to 0.999
12 | CCC[C@H](NC(=O)[C@@H]1CSCN1C(=O)[C@@H](NC(=O)[C@@H](NC(=O)[C@H](CCC(=O)O)NC(=O)[C@H](CCC(=O)O)NC(C)=O)C(C)C)C(C)C)C(=O)C(=O)NCC(=O)O [Ac-EEVV-thioP-nV-(CO)-G-OH] (Ac-EEVV[Thz][X1]G-OH) | 0.001 to 0.1
13 | CCC[C@H](NC(=O)[C@H](CC(=O)O)NC(=O)[C@@H](NC(=O)[C@@H](NC(=O)[C@H](CCC(=O)O)NC(=O)[C@H](CCC(=O)O)NC(C)=O)C(C)C)C(C)C)C(=O)C(=O)NCC(=O)O [Ac-EEVVD-nV-(CO)-G-OH] (Ac-EEVVD[X1]G-OH) | 0.101 to 0.999
14 | CCC[C@H](NC(=O)[C@H](CCC(=O)O)NC(=O)[C@@H](NC(=O)[C@@H](NC(=O)[C@H](CCC(=O)O)NC(=O)[C@H](CCC(=O)O)NC(C)=O)C(C)C)C(C)C)C(=O)C(=O)NCC(=O)O [Ac-EEVVE-nV-(CO)-G-OH] (Ac-EEVVE[X1]G-OH) | 0.001 to 0.1
15 | CCC[C@H](NC(=O)[C@H](Cc1ccccc1)NC(=O)[C@@H](NC(=O)[C@@H](NC(=O)[C@H](CCC(=O)O)NC(=O)[C@H](CCC(=O)O)NC(C)=O)C(C)C)C(C)C)C(=O)C(=O)NCC(=O)O [Ac-EEVVF-nV-(CO)-G-OH] (Ac-EEVVF[X1]G-OH) | 0.001 to 0.1
